Results as given in publication PMC9911399, “Two distinct binding modes provide the RNA-binding protein RbFox with extraordinary sequence specificity”.
Numbering of substitutions follows the chain as printed; changes in the protein carry UniProt numbers. The list shows a part of the results.

T1: RBFOX1 RRM (Homo sapiens, UniProt Q9NWB1 109-208)
T1 sequence: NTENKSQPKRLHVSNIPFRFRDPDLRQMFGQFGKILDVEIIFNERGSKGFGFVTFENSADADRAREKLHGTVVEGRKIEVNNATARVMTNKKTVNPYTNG

B1: UGAUCAU (DNA:RNA)
RNA: GGGAGACCGGAAUUCAGAUUGUCCUGAUCAUUUAAAUCCCGUCGUAGCCACCA
DNA 1: CAATCTGAATTCCGGTCTCCC
DNA 2: TGGTGGCTACGACGGGATT
B2: UAUUCUG (DNA:RNA)
RNA: B1 RNA with G26A, A27U, A30U, U31G
DNA 1: CAATCTGAATTCCGGTCTCCC
DNA 2: TGGTGGCTACGACGGGATT
B3: GCGGGCC (DNA:RNA)
RNA: GGGAGACCGGAAUUCAGAUUGUCCGCGGGCCUUAAAUCCCGUCGUAGCCACCA
DNA 1: CAATCTGAATTCCGGTCTCCC
DNA 2: TGGTGGCTACGACGGGATT
B4: CAGAUGA (DNA:RNA)
RNA: B3 RNA with G25C, C26A, G28A, G29U, C30G, C31A
DNA 1: CAATCTGAATTCCGGTCTCCC
DNA 2: TGGTGGCTACGACGGGATT
B5: AUACUUU (DNA:RNA)
RNA: B1 RNA with U25A, G26U, U28C, C29U, A30U
DNA 1: CAATCTGAATTCCGGTCTCCC
DNA 2: TGGTGGCTACGACGGGATT
B6: CCUUCGA (DNA:RNA)
RNA: B1 RNA with U25C, G26C, A27U, A30G, U31A
DNA 1: CAATCTGAATTCCGGTCTCCC
DNA 2: TGGTGGCTACGACGGGATT
B7: GUGACUA (DNA:RNA)
RNA: B3 RNA with C26U, G28A, G29C, C30U, C31A
DNA 1: CAATCTGAATTCCGGTCTCCC
DNA 2: TGGTGGCTACGACGGGATT
B8: AAGAACA (DNA:RNA)
RNA: B3 RNA with G25A, C26A, G28A, G29A, C31A
DNA 1: CAATCTGAATTCCGGTCTCCC
DNA 2: TGGTGGCTACGACGGGATT
B9: CCAGUUG (DNA:RNA)
RNA: B3 RNA with G25C, G27A, G29U, C30U, C31G
DNA 1: CAATCTGAATTCCGGTCTCCC
DNA 2: TGGTGGCTACGACGGGATT
B10: GCAUGCA (DNA:RNA)
RNA: B3 RNA with G27A, G28U, C31A
DNA 1: CAATCTGAATTCCGGTCTCCC
DNA 2: TGGTGGCTACGACGGGATT
B11: GAGCUUA (DNA:RNA)
RNA: B3 RNA with C26A, G28C, G29U, C30U, C31A
DNA 1: CAATCTGAATTCCGGTCTCCC
DNA 2: TGGTGGCTACGACGGGATT
B12: GCUGUAG (DNA:RNA)
RNA: B3 RNA with G27U, G29U, C30A, C31G
DNA 1: CAATCTGAATTCCGGTCTCCC
DNA 2: TGGTGGCTACGACGGGATT
B13: GACUAAC (DNA:RNA)
RNA: B3 RNA with C26A, G27C, G28U, G29A, C30A
DNA 1: CAATCTGAATTCCGGTCTCCC
DNA 2: TGGTGGCTACGACGGGATT
B14: UAGGGGU (DNA:RNA)
RNA: B3 RNA with G25U, C26A, C30G, C31U
DNA 1: CAATCTGAATTCCGGTCTCCC
DNA 2: TGGTGGCTACGACGGGATT
B15: CAUGCGA (DNA:RNA)
RNA: B3 RNA with G25C, C26A, G27U, G29C, C30G, C31A
DNA 1: CAATCTGAATTCCGGTCTCCC
DNA 2: TGGTGGCTACGACGGGATT
B16: GCCUGAA (DNA:RNA)
RNA: B3 RNA with G27C, G28U, C30A, C31A
DNA 1: CAATCTGAATTCCGGTCTCCC
DNA 2: TGGTGGCTACGACGGGATT
B17: CAGUUAC (DNA:RNA)
RNA: B3 RNA with G25C, C26A, G28U, G29U, C30A
DNA 1: CAATCTGAATTCCGGTCTCCC
DNA 2: TGGTGGCTACGACGGGATT
B18: UGAGUGG (DNA:RNA)
RNA: B1 RNA with U28G, C29U, A30G, U31G
DNA 1: CAATCTGAATTCCGGTCTCCC
DNA 2: TGGTGGCTACGACGGGATT
B19: AACUACC (DNA:RNA)
RNA: B3 RNA with G25A, C26A, G27C, G28U, G29A
DNA 1: CAATCTGAATTCCGGTCTCCC
DNA 2: TGGTGGCTACGACGGGATT
B20: CCGUGGA (DNA:RNA)
RNA: B3 RNA with G25C, G28U, C30G, C31A
DNA 1: CAATCTGAATTCCGGTCTCCC
DNA 2: TGGTGGCTACGACGGGATT
B21: GCGAUGG (DNA:RNA)
RNA: B3 RNA with G28A, G29U, C30G, C31G
DNA 1: CAATCTGAATTCCGGTCTCCC
DNA 2: TGGTGGCTACGACGGGATT
B22: AGGUCCA (DNA:RNA)
RNA: B1 RNA with U25A, A27G, A30C, U31A
DNA 1: CAATCTGAATTCCGGTCTCCC
DNA 2: TGGTGGCTACGACGGGATT
B23: GUGGCCA (DNA:RNA)
RNA: B3 RNA with C26U, G29C, C31A
DNA 1: CAATCTGAATTCCGGTCTCCC
DNA 2: TGGTGGCTACGACGGGATT
B24: UUACUGA (DNA:RNA)
RNA: B1 RNA with G26U, U28C, C29U, A30G, U31A
DNA 1: CAATCTGAATTCCGGTCTCCC
DNA 2: TGGTGGCTACGACGGGATT
B25: GCGCCGA (DNA:RNA)
RNA: B3 RNA with G28C, G29C, C30G, C31A
DNA 1: CAATCTGAATTCCGGTCTCCC
DNA 2: TGGTGGCTACGACGGGATT
B26: CUACAGU (DNA:RNA)
RNA: B1 RNA with U25C, G26U, U28C, C29A, A30G
DNA 1: CAATCTGAATTCCGGTCTCCC
DNA 2: TGGTGGCTACGACGGGATT
B27: GGGGUAA (DNA:RNA)
RNA: B3 RNA with C26G, G29U, C30A, C31A
DNA 1: CAATCTGAATTCCGGTCTCCC
DNA 2: TGGTGGCTACGACGGGATT
B28: CGCCUGU (DNA:RNA)
RNA: B1 RNA with U25C, A27C, U28C, C29U, A30G
DNA 1: CAATCTGAATTCCGGTCTCCC
DNA 2: TGGTGGCTACGACGGGATT
B29: UCUAACC (DNA:RNA)
RNA: B3 RNA with G25U, G27U, G28A, G29A
DNA 1: CAATCTGAATTCCGGTCTCCC
DNA 2: TGGTGGCTACGACGGGATT
B30: GCGCGUC (DNA:RNA)
RNA: B3 RNA with G28C, C30U
DNA 1: CAATCTGAATTCCGGTCTCCC
DNA 2: TGGTGGCTACGACGGGATT
B31: CUGACCA (DNA:RNA)
RNA: B3 RNA with G25C, C26U, G28A, G29C, C31A
DNA 1: CAATCTGAATTCCGGTCTCCC
DNA 2: TGGTGGCTACGACGGGATT

Molecular target: T1, RBFOX1 RRM
Assay: EMSA; HiTS-Eq, 1 nM pool, 10 min; buffer printed only for the single-RNA assays: 10 mM Tris pH 7.5, 150 mM NaCl, 3.4 mM EDTA, 0.001% NP-40, 30 C
Conditions: tags: His6 N-terminal (pET28a); label: 5' 32P
Method in brief: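 These values rest on relative association constants, computed from read-count changes of each RNA species versus the control reaction and normalised to the cognate motif. Reads came from free RNA recovered by 8% native PAGE after purified RbFox RRM (wild type or mutant) at increasing concentrations was equilibrated for 10 min in 50 µL with 1 nM of a 5′-radiolabelled pool with 7 randomized nucleotides and DNA-annealed flanks.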

Binder | binding signal
B1 | 0.0136 KA relative to UGCAUGU
B2 | 0.016 KA relative to UGCAUGU
B3 | 0.0161 KA relative to UGCAUGU
B4 | 0.00723 KA relative to UGCAUGU
B5 | 0.00354 KA relative to UGCAUGU
B6 | 0.00851 KA relative to UGCAUGU
B7 | 0.0087 KA relative to UGCAUGU
B8 | 0.00192 KA relative to UGCAUGU
B9 | 0.00748 KA relative to UGCAUGU
B10 | 0.751 KA relative to UGCAUGU
B11 | 0.00663 KA relative to UGCAUGU
B12 | 0.0169 KA relative to UGCAUGU
B13 | 0.00459 KA relative to UGCAUGU
B14 | 0.00814 KA relative to UGCAUGU
B15 | 0.0092 KA relative to UGCAUGU
B16 | 0.0276 KA relative to UGCAUGU

Binder | binding signal
B17 | 0.00619 KA relative to UGCAUGU
B18 | 0.0137 KA relative to UGCAUGU
B19 | 0.000243 KA relative to UGCAUGU
B20 | 0.00891 KA relative to UGCAUGU
B21 | 0.0208 KA relative to UGCAUGU
B22 | 0.00356 KA relative to UGCAUGU
B23 | 0.0191 KA relative to UGCAUGU
B24 | 0.0193 KA relative to UGCAUGU
B25 | 0.0146 KA relative to UGCAUGU
B26 | 0.00554 KA relative to UGCAUGU
B27 | 0.0285 KA relative to UGCAUGU
B28 | 0.0302 KA relative to UGCAUGU
B29 | 0.00232 KA relative to UGCAUGU
B30 | 0.0189 KA relative to UGCAUGU
B31 | 0.0053 KA relative to UGCAUGU
